Data reported in the supplement of paper PMC9151546.
Repeats are few or missing, and single values can be far off.

Assays:
[1] = tested on: CHO-K1; test: relative survival (nuclei to bead ratio vs DMSO control) (% of vehicle control); higher = more surviving cells
Procedure: (§1)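 Flow-cytometric in vitro micronucleus assay (Litron MicroFlow) in CHO-K1 cells in 96-well plates, 19 concentrations (4.5-200 µM, n=1 per concentration). Without S9, cells were exposed for 24 h and sampled at 48 h. With Aroclor 1254-induced rat liver S9, cells were exposed for 3-4 h and sampled at 27-28 h. Read-outs are %MN and %hypodiploid nuclei relative to nucleated events, and relative survival as the nuclei-to-bead ratio versus the 1% DMSO vehicle control (x100).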

[2] = tested on: CHO-K1; test: hypodiploid nuclei frequency (% of nucleated events); higher = more hypodiploid events (aneugenic)
Procedure: as §1

[3] = tested on: CHO-K1; test: micronucleus frequency (% of nucleated events); higher = more micronuclei (genotoxic)
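For hypodiploid nuclei frequency (% of nucleated events) in this document: hypodiploid nuclei gated on a flow cytometer with 488 nm excitation after SYTOX Green staining, cultures at 37 °C, positive controls vinblastine without S9 and cyclophosphamide with S9.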
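For micronucleus frequency (% of nucleated events) in this document: cells lysed with nuclei stained by SYTOX Green, then micronucleus-gated events counted against nucleated events by flow cytometry with 488 nm excitation.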
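For relative survival (nuclei to bead ratio vs DMSO control) in this document: Lysed-cell nuclei stained with SYTOX Green and counted against counting beads by flow cytometry at 488 nm excitation, with vinblastine (no S9) and cyclophosphamide (plus S9) as positive controls.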

c1cc2c3c(cccc3c1)CC2 [Acenaphthene]
Conditions | hypodiploid nuclei frequency, [2] [%] | micronucleus frequency, [3] [%] | relative survival, [1]
concentration: 4.5 (µM), S9 metabolic activation: with S9, exposure time: 3-4 hours | 0.26 | 1.42 | 126
concentration: 4.5 (µM), S9 metabolic activation: without S9, exposure time: 24 hours | 0.44 | 2.72 | 121
concentration: 5.63 (µM), S9 metabolic activation: with S9, exposure time: 3-4 hours | 0.24 | 1.74 | 110
concentration: 5.63 (µM), S9 metabolic activation: without S9, exposure time: 24 hours | 0.44 | 1.88 | 163
concentration: 7.04 (µM), S9 metabolic activation: with S9, exposure time: 3-4 hours | 0.22 | 1.3 | 122
concentration: 7.04 (µM), S9 metabolic activation: without S9, exposure time: 24 hours | 0.46 | 1.38 | 131
concentration: 8.8 (µM), S9 metabolic activation: with S9, exposure time: 3-4 hours | 0.36 | 1.46 | 112
concentration: 8.8 (µM), S9 metabolic activation: without S9, exposure time: 24 hours | 0.4 | 1.88 | 126
concentration: 11 (µM), S9 metabolic activation: with S9, exposure time: 3-4 hours | 0.28 | 1.84 | 118
concentration: 11 (µM), S9 metabolic activation: without S9, exposure time: 24 hours | 0.62 | 1.52 | 157
concentration: 13.7 (µM), S9 metabolic activation: with S9, exposure time: 3-4 hours | 0.14 | 1.08 | 94.2
concentration: 13.7 (µM), S9 metabolic activation: without S9, exposure time: 24 hours | 0.38 | 1.52 | 133
concentration: 17.2 (µM), S9 metabolic activation: with S9, exposure time: 3-4 hours | 0.22 | 1.06 | 101
concentration: 17.2 (µM), S9 metabolic activation: without S9, exposure time: 24 hours | 0.58 | 2.52 | 119
concentration: 21.5 (µM), S9 metabolic activation: with S9, exposure time: 3-4 hours | 0.2 | 1.1 | 119
concentration: 21.5 (µM), S9 metabolic activation: without S9, exposure time: 24 hours | 0.44 | 1.7 | 92.8
concentration: 26.8 (µM), S9 metabolic activation: with S9, exposure time: 3-4 hours | 0.18 | 1.26 | 119
concentration: 26.8 (µM), S9 metabolic activation: without S9, exposure time: 24 hours | 0.64 | 1.68 | 110
concentration: 33.6 (µM), S9 metabolic activation: with S9, exposure time: 3-4 hours | 0.28 | 1.16 | 141
concentration: 33.6 (µM), S9 metabolic activation: without S9, exposure time: 24 hours | 0.38 | 2 | 116
concentration: 41.9 (µM), S9 metabolic activation: with S9, exposure time: 3-4 hours | 0.18 | 1.34 | 143
concentration: 41.9 (µM), S9 metabolic activation: without S9, exposure time: 24 hours | 0.74 | 2.5 | 112
concentration: 52.4 (µM), S9 metabolic activation: with S9, exposure time: 3-4 hours | 0.28 | 1.9 | 143
concentration: 52.4 (µM), S9 metabolic activation: without S9, exposure time: 24 hours | 0.74 | 2.86 | 118
concentration: 65.5 (µM), S9 metabolic activation: with S9, exposure time: 3-4 hours | 0.28 | 1.82 | 122
concentration: 65.5 (µM), S9 metabolic activation: without S9, exposure time: 24 hours | 0.38 | 1.92 | 128
concentration: 81.9 (µM), S9 metabolic activation: with S9, exposure time: 3-4 hours | 0.28 | 2.12 | 90.2
concentration: 81.9 (µM), S9 metabolic activation: without S9, exposure time: 24 hours | 0.6 | 2.36 | 123
concentration: 102 (µM), S9 metabolic activation: with S9, exposure time: 3-4 hours | 0.38 | 2.92 | 88.3
concentration: 102 (µM), S9 metabolic activation: without S9, exposure time: 24 hours | 0.48 | 3.1 | 121
concentration: 128 (µM), S9 metabolic activation: with S9, exposure time: 3-4 hours | 0.97 | 17.7 | 46.5
concentration: 128 (µM), S9 metabolic activation: without S9, exposure time: 24 hours | 0.76 | 2.46 | 118
concentration: 160 (µM), S9 metabolic activation: with S9, exposure time: 3-4 hours | – | – | 35.9
concentration: 160 (µM), S9 metabolic activation: without S9, exposure time: 24 hours | 0.78 | 3 | 105
concentration: 200 (µM), S9 metabolic activation: without S9, exposure time: 24 hours | 0.7 | 3.16 | 101
